The values below come from PubChem BioAssay (NCI).

This assay concerns NCI-H322M lung. In words: inhibition of tumour cell growth, NCI panel, 48 h.

Where “and” joins values, the source holds several entries; their conditions need not be identical. Identical values can stand only once.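 Where inhibition never reached the appropriate level, the endpoint shown equals the highest concentration tested. Otherwise, values were interpolated linearly from a five-concentration, 48-hour dose response in 96-well plates. GI50 is the concentration that inhibits growth by half. Definition used: TGI = concentration required for complete inhibition of growth.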 Numbered stars: 1 amine (or outer) side, 2 acyl side, 3 side chain; on linkers, the order of the positions; unused ones are H or OH. Bridge positions count the residues as written; N and C are the ends. Square brackets hold non-standard residues; d marks the D form. Peptide text beside a SMILES is read from it. I, II: the chains in the order shown. Actinocin(1to9) = Cc1c2oc3c(C)ccc(C(=O)[*:2])c3nc-2c(C(=O)[*:1])c(N)c1=O; NMeV = CN[CH](C(=O)O)C(C)C; Sar = CNCC(=O)O

As for `COc1cccc(N2C(=N)/C(=C3\Nc4ccccc4S3)CC2=O)c1`, the GI50 was above 100 µM and the TGI is above 100 µM. The molecule `CN(C)Cc1ccc(O)c(CN(C)C)n1` yielded a TGI above 100 µM. Regarding `COc1ccc(/C=C/C(=O)C(=O)/C=C/c2ccc(OC)c(OC)c2)cc1OC`, the GI50 was 6.69 µM and the TGI is above 100 µM. Turning to `Cc1cc2c(C(C)C)c(O)c(O)c(/C=N/O)c2c(O)c1-c1c(C)cc2c(C(C)C)c(O)c(O)c(/C=N/O)c2c1O`, the GI50 is 3.59 µM and the TGI came to 16.1 µM. Take `COc1ccc(CC2NC(=O)C(NC(=O)c3c4nc5c(C(=O)NC6C(=O)NC(Cc7ccc(OC)cc7)C(=O)N7CCCC7C(=O)N(C)CC(=O)N(C)C(C(C)C)C(=O)OC6C)ccc(C)c5oc-4c(C)c(=O)c3N)C(C)OC(=O)C(C(C)C)N(C)C(=O)CN(C)C(=O)C3CCCN3C2=O)cc1` (stereo not drawn) (I: TY(Me)P[Sar][NMeV] / II: TY(Me)P[Sar][NMeV]; ester I:1-I:C, II:1-II:C; linker I:N-II:N via Actinocin(1to9); configuration not given here): the TGI came to 0.124 µM. With `CCOC(=O)C1(C)C2=CC=C(O2)C(C)(C)C2=CC=C(O2)C(C)(C)C2=CC=C(O2)C(C)(C)C2=CC=C1O2`, the TGI was above 100 µM. In turn, `CC(=O)Nc1ccc2cc(C#N)c(=O)[nH]c2n1` displayed a TGI above 100 µM. Consider `CC1=C(C)C2(C#N)C(=O)N3C(=NC(c4ccco4)NC3c3ccco3)C2(C#N)C(c2ccco2)N1` (stereo not drawn), for which the TGI is above 100 µM. With `COC(=O)C1C(=O)C(C(=O)OC)C2CCC1N2C` (stereo not drawn), the TGI is above 100 µM. `COC(=O)C1=C(C)NC(CF)=C(C(=O)OC)C1c1cccc2c(=O)c3ccccc3oc12` (stereo not drawn) displayed a TGI above 100 µM. Regarding `Cc1c(Br)c(Br)c2c3c1nc(N1CCNCC1)n3CCC2`, the GI50 is 1.65 µM and the TGI turned out to be 3.02 µM. `Cc1cc(NS(=O)(=O)c2ccc(NC(=O)c3cccc4c(Nc5ccc(S(=O)(=O)Nc6cc(C)on6)cc5)c5ccc(Cl)cc5nc34)cc2)no1` came in with a TGI above 100 µM. Consider `CN1CCC(=C(c2ccc(Cl)cc2)c2ccccn2)CC1`, for which the GI50 is above 100 µM and the TGI is above 100 µM. Consider `COc1ccc(/C=C/C(=O)OC2CC34CCNC35CC(OC5(OC)C2OC)c2ccc(OC)c(O)c24)cc1O` (stereo not drawn), for which the GI50 was 32.1 µM and > 100 µM; the TGI is above 100 µM. For `CCN(CC)CCOc1ccc2c(-c3ccccc3)c(-c3ccc(OC)cc3)c(=O)oc2c1`, the GI50 is 12.9 µM and the TGI came out at 25.9 µM. As for `Cc1[nH]c(N)nc(=S)c1CCCNc1ccccc1`, the TGI is above 100 µM. Molecule `Cc1cc(C(O)CCCc2ccccc2)cc(C)c1O` (stereo not drawn) registered a TGI above 100 µM. `O=C(CCl)N1CCN(c2ccccn2)CC1` returned a TGI of 37.4 µM. In turn, `COc1ccc(N=Nc2c(-c3ccccc3)nn(C(=O)CC(=O)Nc3ccc(OC)cc3)c2-c2ccccc2)cc1` had a TGI above 100 µM. On to `c1ccc(C2=Nc3ccccc3N3CNN=C23)cc1`, for which the GI50 is above 100 µM and the TGI is above 100 µM. With `C[C@H]1[C@H]2[C@H](C[C@@]3(C)C4=CC[C@H]5C(C)(C)[C@@H](OC6OCC(O)C(O)C6O)CC[C@@]56C[C@@]46CC[C@]23C)O[C@@]2(O)[C@@H]1OC(C)(C)[C@H]2O` (stereo partly drawn), the TGI worked out at 11.7 µM. In the case of `Fc1ccc(C2CC(c3cccc(Nc4ccncc4)c3)=NN2c2ccccc2)cc1` (stereo not drawn), the GI50 was 1.74 µM and the TGI came to 3.77 µM. As to `CC1=CP(=O)(OC(C)C)C=C(C)C1=C(Cl)Cl` (stereo not drawn), the TGI is above 100 µM. As for `CCN1C[C@@H](C)n2c(c(O)c3c(=O)n(Cc4ccc(F)c(Cl)c4)nc(C(=O)NC)c32)C1=O`, the GI50 was 2.97 µM and the TGI is above 100 µM.

`O=C(Oc1ccc(C(c2c(O)c3ccccc3oc2=O)c2c(O)c3ccccc3oc2=O)cc1)c1ccc(C(=O)c2ccccc2)cc1` returned a TGI of 89.2 µM. Still for that read-out and setting: under `CC12CCC(=O)N1[C@@H](c1ccccc1)[C@@H](c1ccccc1)O2` (stereo partly drawn) stands above 100 µM; under `CN(C)/C=N/c1cc(=O)n(C)c(=O)n1C`, above 100 µM; under `CCOc1cc(CC[N+](C)(C)C)c2c(ccc3ccc(OC)c(OC)c32)c1OC`, above 100 µM.
